# According to the supplement of paper PMC8728848:
# The other results are listed elsewhere or left out.
# Assays:
# Experiment in all cases: glycan array binding signal (z-score within array); higher = stronger binding
# Conditions in all cases: glycan notation: IUPAC condensed, linker removed
# Fuc(a1-2)Gal = molecular target: Fuc(a1-2)Gal
# Method in brief: (§1)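 From the Consortium for Functional Glycomics database, 3228 arrays were curated, keeping only those whose protein sequence was available. Binding is given as a within-array Z-score averaged across arrays sharing a protein sequence and across linkers. Negative Z-scores can be read as non-binding.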
# Fuc(a1-2)Gal(b1-3)GalNAc = molecular target: Fuc(a1-2)Gal(b1-3)GalNAc
# Method in brief: as §1
# [1] = molecular target: Fuc(a1-2)Gal(b1-3)GalNAc(a1-3)[Fuc(a1-2)]Gal(b1-4)Glc
# Method in brief: as §1
# [2] = molecular target: Fuc(a1-2)Gal(b1-3)GalNAc(a1-3)[Fuc(a1-2)]Gal(b1-4)GlcNAc
# Method in brief: as §1
# [3] = molecular target: Fuc(a1-2)Gal(b1-3)GalNAc(b1-3)Gal
# Method in brief: as §1
# [4] = molecular target: Fuc(a1-2)Gal(b1-3)GalNAc(b1-3)Gal(a1-4)Gal(b1-4)Glc
# Method in brief: as §1
# [5] = molecular target: Fuc(a1-2)Gal(b1-3)GalNAc(b1-4)[Neu5Ac(a2-3)]Gal(b1-4)Glc
# Method in brief: as §1
# Fuc(a1-2)Gal(b1-3)GlcNAc = molecular target: Fuc(a1-2)Gal(b1-3)GlcNAc
# Method in brief: as §1
# [6] = molecular target: Fuc(a1-2)Gal(b1-3)GlcNAc(b1-2)Man(a1-3)[Fuc(a1-2)Gal(b1-3)GlcNAc(b1-2)Man(a1-6)]Man(b1-4)GlcNAc(b1-4)GlcNAc
# Method in brief: as §1
# [7] = molecular target: Fuc(a1-2)Gal(b1-3)GlcNAc(b1-3)Gal(b1-4)Glc
# Method in brief: as §1
# [8] = molecular target: Fuc(a1-2)Gal(b1-3)GlcNAc(b1-3)[Fuc(a1-3)[Gal(b1-4)]GlcNAc(b1-6)]Gal(b1-4)Glc
# Method in brief: as §1
# [9] = molecular target: Fuc(a1-2)Gal(b1-3)[Fuc(a1-4)]GlcNAc
# Method in brief: as §1
# [10] = molecular target: Fuc(a1-2)Gal(b1-3)[Fuc(a1-4)]GlcNAc(b1-2)Man(a1-3)[Fuc(a1-2)Gal(b1-3)[Fuc(a1-4)]GlcNAc(b1-2)Man(a1-6)]Man(b1-4)GlcNAc(b1-4)GlcNAc
# Method in brief: as §1
# [11] = molecular target: Fuc(a1-2)Gal(b1-3)[Fuc(a1-4)]GlcNAc(b1-3)[Fuc(a1-3)[Gal(b1-4)]GlcNAc(b1-6)]Gal(b1-4)Glc
# Method in brief: as §1
# [12] = molecular target: Fuc(a1-2)Gal(b1-3)[Fuc(a1-4)]GlcNAc(b1-3)[Gal(b1-4)GlcNAc(b1-6)]Gal(b1-4)Glc
# Method in brief: as §1
# Fuc(a1-2)Gal(b1-4)Glc = molecular target: Fuc(a1-2)Gal(b1-4)Glc
# Method in brief: as §1
# Fuc(a1-2)Gal(b1-4)Glc6S = molecular target: Fuc(a1-2)Gal(b1-4)Glc6S
# Method in brief: as §1
# Fuc(a1-2)Gal(b1-4)GlcNAc = molecular target: Fuc(a1-2)Gal(b1-4)GlcNAc
# Method in brief: as §1
# [13] = molecular target: Fuc(a1-2)Gal(b1-4)GlcNAc(b1-2)Man(a1-3)[Fuc(a1-2)Gal(b1-4)GlcNAc(b1-2)Man(a1-6)]Man(b1-4)GlcNAc(b1-4)GlcNAc
# Method in brief: as §1
# [14] = molecular target: Fuc(a1-2)Gal(b1-4)GlcNAc(b1-3)Gal(b1-4)GlcNAc
# Method in brief: as §1
# [15] = molecular target: Fuc(a1-2)Gal(b1-4)GlcNAc(b1-3)Gal(b1-4)GlcNAc(b1-3)Gal(b1-4)GlcNAc
# Method in brief: as §1
# [16] = molecular target: Fuc(a1-2)Gal(b1-4)GlcNAc(b1-3)GalNAc
# Method in brief: as §1
# [17] = molecular target: Fuc(a1-2)Gal(b1-4)GlcNAc6S
# Method in brief: as §1
# [18] = molecular target: Fuc(a1-2)Gal(b1-4)[Fuc(a1-3)]GlcNAc
# Method in brief: as §1
# [19] = molecular target: Fuc(a1-2)Gal(b1-4)[Fuc(a1-3)]GlcNAc(b1-2)Man(a1-3)[Fuc(a1-2)Gal(b1-4)[Fuc(a1-3)]GlcNAc(b1-2)Man(a1-6)]Man(b1-4)GlcNAc(b1-4)GlcNAc
# Method in brief: as §1
# [20] = molecular target: Fuc(a1-2)Gal(b1-4)[Fuc(a1-3)]GlcNAc(b1-3)Gal(b1-4)[Fuc(a1-3)]GlcNAc
# Method in brief: as §1
# [21] = molecular target: Fuc(a1-2)Gal(b1-4)[Fuc(a1-3)]GlcNAc(b1-3)Gal(b1-4)[Fuc(a1-3)]GlcNAc(b1-3)Gal(b1-4)[Fuc(a1-3)]GlcNAc
# Method in brief: as §1
# Fuc(a1-2)Gal6S(b1-4)Glc = molecular target: Fuc(a1-2)Gal6S(b1-4)Glc
# Method in brief: as §1
# [22] = molecular target: Fuc(a1-2)Gal6S(b1-4)Glc6S
# Method in brief: as §1
# [23] = molecular target: Fuc(a1-2)Gal6S(b1-4)GlcNAc
# Method in brief: as §1
# Fuc(a1-2)[Gal(a1-3)]Gal = molecular target: Fuc(a1-2)[Gal(a1-3)]Gal
# Method in brief: as §1
# [24] = molecular target: Fuc(a1-2)[Gal(a1-3)]Gal(b1-3)GlcNAc
# Method in brief: as §1
# [25] = molecular target: Fuc(a1-2)[Gal(a1-3)]Gal(b1-3)GlcNAc(b1-2)Man(a1-3)[Fuc(a1-2)[Gal(a1-3)]Gal(b1-3)GlcNAc(b1-2)Man(a1-6)]Man(b1-4)GlcNAc(b1-4)GlcNAc
# Method in brief: as §1
# [26] = molecular target: Fuc(a1-2)[Gal(a1-3)]Gal(b1-4)Glc
# Method in brief: as §1
# [27] = molecular target: Fuc(a1-2)[Gal(a1-3)]Gal(b1-4)GlcNAc
# Method in brief: as §1
# [28] = molecular target: Fuc(a1-2)[Gal(a1-3)]Gal(b1-4)GlcNAc(b1-2)Man(a1-3)[Fuc(a1-2)[Gal(a1-3)]Gal(b1-4)GlcNAc(b1-2)Man(a1-6)]Man(b1-4)GlcNAc(b1-4)GlcNAc
# Method in brief: as §1
# [29] = molecular target: Fuc(a1-2)[Gal(a1-3)]Gal(b1-4)[Fuc(a1-3)]GlcNAc
# Method in brief: as §1
# [30] = molecular target: Fuc(a1-2)[Gal(a1-4)]Gal(b1-4)GlcNAc
# Method in brief: as §1
# [31] = molecular target: Fuc(a1-2)[GalNAc(a1-3)]Gal
# Method in brief: as §1
# [32] = molecular target: Fuc(a1-2)[GalNAc(a1-3)]Gal(b1-3)GalNAc(a1-3)[Fuc(a1-2)]Gal(b1-4)GlcNAc
# Method in brief: as §1
# [33] = molecular target: Fuc(a1-2)[GalNAc(a1-3)]Gal(b1-3)GlcNAc
# Method in brief: as §1
# [34] = molecular target: Fuc(a1-2)[GalNAc(a1-3)]Gal(b1-3)GlcNAc(b1-2)Man(a1-3)[Fuc(a1-2)[GalNAc(a1-3)]Gal(b1-3)GlcNAc(b1-2)Man(a1-6)]Man(b1-4)GlcNAc(b1-4)GlcNAc
# Method in brief: as §1
# [35] = molecular target: Fuc(a1-2)[GalNAc(a1-3)]Gal(b1-4)Glc
# Method in brief: as §1
# [36] = molecular target: Fuc(a1-2)[GalNAc(a1-3)]Gal(b1-4)GlcNAc
# Method in brief: as §1
# [37] = molecular target: Fuc(a1-2)[GalNAc(a1-3)]Gal(b1-4)GlcNAc(b1-2)Man(a1-3)[Fuc(a1-2)[GalNAc(a1-3)]Gal(b1-4)GlcNAc(b1-2)Man(a1-6)]Man(b1-4)GlcNAc(b1-4)GlcNAc
# Method in brief: as §1
binder,measurement,setting,value
GH98CBM51-1 (Streptococcus pneumoniae) (protein) MTYLSDMDWSSATHGDIDKTKTVQKDAPFTTGNKGEHTKISLLTSDDKVKYFDKGIGTVADSPSVISYDISGQGFEKFETYIGIDQSANSSRSDHAVVDRIEIEIDGKVVYSSSVTNPEGFRYNTQAQFISVTIPQNAKKISLKSFAGEHTWGDEVVFADAKLIKTVST,glycan array binding signal (z-score),Fuc(a1-2)Gal,-0.186
same,glycan array binding signal (z-score),Fuc(a1-2)Gal(b1-3)GalNAc,-0.19
same,glycan array binding signal (z-score),[1],-0.189
same,glycan array binding signal (z-score),[2],0.247
same,glycan array binding signal (z-score),[3],-0.187
same,glycan array binding signal (z-score),[4],-0.161
same,glycan array binding signal (z-score),[5],-0.187
same,glycan array binding signal (z-score),Fuc(a1-2)Gal(b1-3)GlcNAc,-0.174
same,glycan array binding signal (z-score),[6],-0.18
same,glycan array binding signal (z-score),[7],-0.191
same,glycan array binding signal (z-score),[8],-0.185
same,glycan array binding signal (z-score),[9],-0.189
same,glycan array binding signal (z-score),[10],-0.107
same,glycan array binding signal (z-score),[11],-0.192
same,glycan array binding signal (z-score),[12],-0.19
same,glycan array binding signal (z-score),Fuc(a1-2)Gal(b1-4)Glc,-0.193
same,glycan array binding signal (z-score),Fuc(a1-2)Gal(b1-4)Glc6S,-0.182
same,glycan array binding signal (z-score),Fuc(a1-2)Gal(b1-4)GlcNAc,-0.191
same,glycan array binding signal (z-score),[13],-0.193
same,glycan array binding signal (z-score),[14],-0.193
same,glycan array binding signal (z-score),[15],-0.19
same,glycan array binding signal (z-score),[16],-0.194
same,glycan array binding signal (z-score),[17],-0.194
same,glycan array binding signal (z-score),[18],-0.192
same,glycan array binding signal (z-score),[19],-0.174
same,glycan array binding signal (z-score),[20],-0.196
same,glycan array binding signal (z-score),[21],-0.178
same,glycan array binding signal (z-score),Fuc(a1-2)Gal6S(b1-4)Glc,-0.185
same,glycan array binding signal (z-score),[22],-0.177
same,glycan array binding signal (z-score),[23],-0.194
same,glycan array binding signal (z-score),Fuc(a1-2)[Gal(a1-3)]Gal,5.96
same,glycan array binding signal (z-score),[24],-0.179
same,glycan array binding signal (z-score),[25],-0.129
same,glycan array binding signal (z-score),[26],3.09
same,glycan array binding signal (z-score),[27],5.12
same,glycan array binding signal (z-score),[28],8.05
same,glycan array binding signal (z-score),[29],0.606
same,glycan array binding signal (z-score),[30],-0.186
same,glycan array binding signal (z-score),[31],4.76
same,glycan array binding signal (z-score),[32],0.133
same,glycan array binding signal (z-score),[33],-0.141
same,glycan array binding signal (z-score),[34],-0.122
same,glycan array binding signal (z-score),[35],4.09
same,glycan array binding signal (z-score),[36],5.07
same,glycan array binding signal (z-score),[37],5.04
